Data on one molecule can be found in publication PMC10703783, “Programmed cell death 11 modulates but not entirely relies on p53-HDM2 loop to facilitate G2/M transition in colorectal cancer cells” (Oncogenesis, 2023).

In the assay the target is T1, His-S-tagged full-length PDCD11 (programmed cell death 11) (human, UniProt Q14690 1-1871).
T1 construct: programmed cell death 11 (PDCD11), human, Gene ID 22984, 1871 amino acids, full length; also called PDCD11-FL; ALG-4; source: expressed and purified
The experiment in a line: pull-down; GST pulldown in vitro; GST-tagged p53 or HDM2 (full length or truncations) as bait, His-S-tagged PDCD11 (full length or truncations) as prey. Particulars: both partners purified.

B1: GST-tagged full-length HDM2 (natural protein)
chain: not shown
notes: HDM2, full length; also called HDM2-FL; GST-HDM2; source: expressed and purified
As to B1, the binding result is “binds”.
